# This is one part of the list. The energies were worked out here from pooled read counts, against the library average; single values are noisy.
# Biological target: T1, Pho4 (S. cerevisiae) (UniProt P07270)
# T1 sequence: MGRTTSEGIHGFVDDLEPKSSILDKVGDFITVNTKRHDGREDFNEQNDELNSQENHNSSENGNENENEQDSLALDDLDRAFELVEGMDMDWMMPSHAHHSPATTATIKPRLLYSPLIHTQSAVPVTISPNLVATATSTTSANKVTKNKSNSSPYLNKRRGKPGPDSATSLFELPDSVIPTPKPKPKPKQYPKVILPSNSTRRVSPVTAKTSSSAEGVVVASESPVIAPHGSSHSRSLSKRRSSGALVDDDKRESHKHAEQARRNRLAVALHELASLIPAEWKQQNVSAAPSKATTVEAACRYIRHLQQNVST
# Assay: relative binding free energy (BET-seq); higher = weaker binding
# Conditions: reference: library average
row,Sequence,relative binding free energy [kcal/mol]
1,TTTTACACGTGGAGAT,0.13
2,AAGAGCACGTGGTTGA,-0.19
3,TATGGCACGTGGAAAA,0.07
4,GGATCCACGTGTGTGG,0.13
5,CTGGGCACGTGGAAAG,-0.09
6,GGGGTCACGTGAGTGC,0.19
7,ACGCTCACGTGGGTGG,0.15
8,TGAGTCACGTGTTTGG,0.17
9,AGAAGCACGTGGGTAT,-0.19
10,GGGTGCACGTGGTGAG,0.01
11,TTATGCACGTGTGGGA,0.01
12,TATTGCACGTGCTTGT,-0.14
13,ATTTCCACGTGTGTTG,0.07
14,GAGCGCACGTGTGTTG,-0.04
15,TGCATCACGTGATTTG,0.01
16,TTTATCACGTGGGGCC,0
17,CTGATCACGTGTGGAG,0.17
18,TATCTCACGTGGGAGA,0.26
19,TTAGACACGTGAGAGA,0.23
20,TTGCTCACGTGTGTGA,0.17
21,AACTTCACGTGTTGTG,0.25
22,ATAAGCACGTGGGTCG,-0.12
23,CGTCGCACGTGGTGTG,-0.32

row,Sequence,relative binding free energy [kcal/mol]
1,CTGAGCACGTGTGGGG,-0.07
2,ATTACCACGTGATTTG,0.17
3,GGCATCACGTGGAAGG,0.19
4,ACTTGCACGTGTGGGG,-0.01
5,GGTGACACGTGTGAGA,0.16
6,TATAACACGTGGATGG,0.02
7,CAATTCACGTGTGTTG,0.24
8,TTATACACGTGGGTTT,-0.11
9,TGTAACACGTGCGTAG,-0.07
10,GTACACACGTGGTTGT,-0.1
11,TTAACCACGTGGGAGT,-0.07
12,GTAGACACGTGGGTGG,-0.03
13,TGGGGCACGTGGTAGA,-0.17
14,TCAATCACGTGGTTTG,0.06
15,TAAGCCACGTGGGAGG,-0.2
16,CGTTGCACGTGGGGAA,0.02
17,GTTATCACGTGTGGAT,0.25
18,TCGTACACGTGTAAGT,0.16
19,AGTGTCACGTGGTGAT,0.07
20,TAGTGCACGTGCTATG,-0.04
21,GTAGGCACGTGCTAGG,-0.08
22,ATGGGCACGTGATGAT,-0.06
23,TGATGCACGTGTGACG,-0.04

row,Sequence,relative binding free energy [kcal/mol]
1,AAGATCACGTGATTTT,0.34
2,AGAGTCACGTGGGAAA,0.07
3,TCATGCACGTGGAGTG,-0.05
4,AGGTTCACGTGGAACT,0.41
5,TTTTTCACGTGATTTG,0.46
6,AGGTACACGTGGTTTA,-0.03
7,CGTTGCACGTGGCCGG,-0.11
8,ATGTGCACGTGGGGTC,-0.26
9,TTACTCACGTGTGGCA,0.32
10,CAGGACACGTGGTGGA,-0.13
11,ATGGGCACGTGTTTAG,-0.06
12,ATTAGCACGTGTTTTC,-0.07
13,TGACGCACGTGAGGAG,0.13
14,TATAGCACGTGAATGT,0.09
15,TACGACACGTGGGTGT,-0.09
16,TATCGCACGTGAGTGG,0.16
17,ATAGTCACGTGGATGT,0.06
18,TCATTCACGTGGGCTT,0.25
19,GGGGGCACGTGTTAAG,-0.06
20,TGTGACACGTGGTAGT,-0.03
21,AAAGGCACGTGGTTGA,-0.1
22,AAGTGCACGTGATTTT,0.1
23,AGTTGCACGTGTATGA,-0.01

row,Sequence,relative binding free energy [kcal/mol]
1,TTCAACACGTGGAGAT,0.27
2,GTTCGCACGTGGATTG,-0.07
3,CTGGTCACGTGAGAAT,0.51
4,AATATCACGTGGGATT,0.08
5,GTGTGCACGTGAGGGC,0.24
6,TTAGACACGTGGTATA,-0.15
7,TATAGCACGTGATCTT,0.04
8,CTGTACACGTGAGGGA,0.1
9,CAGGGCACGTGGAAGT,-0.01
10,TTTCGCACGTGGGGAT,-0.12
11,TTGCACACGTGGGTGT,0
12,AGTAGCACGTGGTGAA,-0.24
13,GATCACACGTGAGGGT,0.25
14,GAAGGCACGTGCTAGT,0.03
15,CTTGGCACGTGTGGGC,-0.09
16,TACTTCACGTGGGTGT,0.07
17,AGGTGCACGTGTGTCA,0.04
18,TGTAACACGTGGGTTA,-0.25
19,CTGAGCACGTGGCGGT,-0.18
20,GTAAGCACGTGTGTGT,0.06
21,AGGTTCACGTGTGTGC,0.16
22,GTGCTCACGTGGGGGC,0.09
23,GTTGTCACGTGAGTTC,0.38

row,Sequence,relative binding free energy [kcal/mol]
1,GTGCGCACGTGGGTGG,-0.2
2,GCATTCACGTGAGGTT,0.35
3,GATGTCACGTGGGAAG,0.04
4,GTGAGCACGTGGGGTA,-0.22
5,ATTTTCACGTGTAAAT,0.29
6,AGGTACACGTGTCGGT,0.04
7,TTTTTCACGTGAGTGC,0.42
8,AAGGACACGTGTATGT,0.09
9,GGTTACACGTGGGGTA,0.1
10,ATTTTCACGTGCAAAT,0.34
11,GAAGACACGTGGGCTG,0.01
12,ACTTGCACGTGGTTTT,0.01
13,TATTGCACGTGGTTTC,-0.11
14,TAGATCACGTGGGTGC,-0.04
15,TATTCCACGTGGGGCT,0.05
16,GTTAGCACGTGAAAGT,0.2
17,ACGAGCACGTGGGGCT,-0.22
18,ATGTACACGTGGTAAT,-0.05
19,TGGCACACGTGGGTTC,-0.03
20,GGTCGCACGTGTGATG,0.03
21,CAATGCACGTGTGATT,0.15
22,TTCGACACGTGCGGTG,0.08
23,TTTTGCACGTGTCAGA,0.01

# Source: the BET-seq Pho4 binding data (Le et al. 2018)
